Source: the supplement of paper PMC3334620
Whole data set: some 33,000 sequences, median “E-score (-0.5 to 0.5)” near -0.035, cut for the highest 2% near 0.34. The list shows a part of the results.

Each sequence was assayed against T1, Mot3 (UniProt P54785) (assay: PBM E-score (8-mer binding enrichment) (E-score (-0.5 to 0.5)); higher = stronger / more preferred TF binding; most listed sequences are background and not binding sites). Settings: protein concentration: 200 nM; construct: GST-full length.
T1 sequence: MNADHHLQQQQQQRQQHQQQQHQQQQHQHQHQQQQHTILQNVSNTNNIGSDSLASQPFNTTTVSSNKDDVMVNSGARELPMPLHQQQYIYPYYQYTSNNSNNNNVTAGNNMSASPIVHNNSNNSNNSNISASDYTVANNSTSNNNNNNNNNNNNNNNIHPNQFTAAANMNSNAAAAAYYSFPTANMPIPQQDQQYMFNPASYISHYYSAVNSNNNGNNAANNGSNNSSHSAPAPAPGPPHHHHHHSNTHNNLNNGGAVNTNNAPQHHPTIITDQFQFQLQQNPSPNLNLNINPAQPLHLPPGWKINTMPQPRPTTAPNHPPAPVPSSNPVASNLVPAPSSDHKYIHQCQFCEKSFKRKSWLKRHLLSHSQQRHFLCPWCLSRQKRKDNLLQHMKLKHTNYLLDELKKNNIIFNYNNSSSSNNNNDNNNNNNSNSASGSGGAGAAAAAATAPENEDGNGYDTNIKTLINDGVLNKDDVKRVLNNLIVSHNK
Procedure, shortened: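 PURExpress in vitro transcription/translation supplied GST-tagged yeast transcription factors, either full-length or DNA-binding domain. Applied at about 100-200 nM to universal all-10-mer Agilent arrays double-stranded by primer extension, the bound protein was detected with fluorescent anti-GST. E-scores, modified Wilcoxon-Mann-Whitney statistics, were given by the Universal PBM Analysis Suite to ungapped eight-base words pooled with their reverse complements after masliner normalisation.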

| Sequence | PBM E-score |
| --- | --- |
| CTTGGTCA | -0.139 |
| GCGGAAGA | -0.148 |
| CGCTCATC | -0.146 |
| ATATCCCC | -0.194 |
| GGGTCACC | -0.141 |
| AGCGGGAG | -0.224 |
| CAGATCGC | -0.228 |
| AGCAGCTC | -0.343 |
| ATGGGTCC | -0.266 |
| AGGGCTAC | -0.181 |
| TGTTTAAA | 0.292 |
| GCGGCCCC | -0.371 |
| TATGGGCA | 0.0963 |
| CGCGTGTC | 0.196 |
| ATTTTAGC | 0.00675 |
| GGATTTCA | -0.191 |
| ATCTGGAC | -0.178 |
| AGGTCAGG | -0.136 |
| ACAGCTAA | 0.0405 |
| ATTAGGTG | 0.0372 |
| ACCTGGTA | 0.061 |
| GAACAAGC | 0.245 |
| ATCATTAG | 0.0699 |
| ATCATACA | 0.0292 |
| GAAAAGCC | -0.338 |

| Sequence | PBM E-score |
| --- | --- |
| CGGCTGGA | -0.393 |
| ACGCCCAA | 0.081 |
| AGTGAATA | 0.206 |
| GGCGCAAC | -0.0748 |
| AAAGTAAC | 0.123 |
| ACCTCTAG | -0.0785 |
| AGTAATAC | 0.111 |
| AGGCGCCC | 0.186 |
| CGACAGTA | -0.196 |
| AGTACATC | 0.166 |
| ACAAAGTA | 0.101 |
| ATATTGCC | 0.211 |
| AACACACC | 0.305 |
| AATTCCCT | -0.0506 |
| GGCACCAC | 0.338 |
| CATTGCGC | -0.0779 |
| GCGAGTAA | 0.146 |
| ATAGACCA | -0.221 |
| TCCCCAGA | -0.131 |
| ATCACCGA | -0.0688 |
| TAAGTATA | 0.104 |
| ACCAGTGC | 0.0131 |
| AAGTGAGT | -0.0406 |
| CGGTAAGA | -0.246 |
| CCCACGGG | -0.123 |

| Sequence | PBM E-score |
| --- | --- |
| AAGGAAGG | 0.176 |
| GCTGTCAA | -0.114 |
| TCAGAACA | 0.236 |
| CACTAGTC | -0.152 |
| GTGCACTA | -0.0707 |
| AACTGTGC | 0.0804 |
| CAAGCTCC | -0.29 |
| AAAATTCA | 0.133 |
| CAAAGGTC | -0.199 |
| AGTACCCG | 0.0468 |
| ACGGTTGA | -0.0563 |
| ACAGACCT | 0.0741 |
| GATCTACA | 0.255 |
| AGTCTTCG | -0.0727 |
| GGGAACGA | -0.122 |
| AATCGGAT | -0.048 |
| CCAGTCGA | -0.156 |
| AATGCAAT | 0.00807 |
| GGTTGTTA | 0.216 |
| CGAACCAG | -0.031 |
| CCCTGTCA | 0.00194 |
| ATCGAGCG | -0.186 |
| TCTACCAA | -0.0908 |
| AGGGCAGA | -0.142 |
| ACCCTGGA | -0.149 |

| Sequence | PBM E-score |
| --- | --- |
| AAATAGTG | 0.211 |
| CTTACGGA | -0.155 |
| CGGAGAAG | -0.113 |
| CCCACAAA | 0.0705 |
| GACTGGAA | -0.213 |
| AGTAAGAT | 0.00626 |
| CTCCTGGC | -0.191 |
| AACTCTCA | -0.203 |
| CAGTGGGA | -0.134 |
| GGGTTGGA | -0.124 |
| CATCAAAC | 0.119 |
| AGGTCCAC | -0.187 |
| CAAGAGGC | 0.021 |
| GATCTCTA | -0.137 |
| CCTTCGAC | 0.135 |
| CACGCTGC | 0.0891 |
| ACTTAACG | 0.141 |
| ATGTTCGC | -0.0477 |
| AAAGCGGT | 0.0633 |
| ATCTCGTC | -0.123 |
| CCACTGCG | -0.178 |
| AGCCCAAG | -0.331 |
| AAAATAGT | 0.0319 |
| AAATCTGT | 0.0619 |
| CAGTGTTC | -0.168 |

| Sequence | PBM E-score |
| --- | --- |
| CCTGATAC | 0.107 |
| ACAAGCGA | 0.0908 |
| GAGCGGCC | -0.336 |
| CGGTAGTA | 0.0794 |
| CCAGTCTA | -0.209 |
| GCTTGTGA | -0.00544 |
| CAATTATA | 0.155 |
| CGCCTTTA | 0.292 |
| AAATCTAC | 0.207 |
| ACGGGTGC | -0.244 |
| GCTGCCTA | 0.282 |
| CATGTTCC | 0.178 |
| GCGTGCTA | -0.185 |
| ATAGATGG | -0.0411 |
| CTGCTCTA | 0.00698 |
| CACCTATG | -0.0862 |
| ACCTGTCA | -0.0178 |
| CGGCACGA | 0.00099 |
| ACACCTAG | 0.0682 |
| ACACTGAC | 0.196 |
| ATTTGAAC | 0.133 |
| ATAAATCC | -0.187 |
| AACAAAGT | 0.204 |
| CCCGATTC | -0.0181 |
| CGCCGAGA | -0.2 |

| Sequence | PBM E-score |
| --- | --- |
| CGATACAC | 0.141 |
| CTTCGTCA | 0.0926 |
| CCCGCCAC | -0.168 |
| AAAGGGCG | 0.0811 |
| TACGCCAA | -0.142 |
| AATATATG | 0.157 |
| GATCTAAC | -0.0815 |
| AATTTTCT | -0.131 |
| AACAGTCT | -0.0693 |
| ACACGGGC | 0.259 |
| AGTACTCC | -0.0724 |
| CGTCAGCA | -0.00088 |
| AACGAACC | -0.099 |
| TACAGTCA | 0.191 |
| AACCAATA | 0.105 |
| AAGTGTTG | 0.129 |
| CCCCTCCG | -0.0718 |
| TGAGAGCA | -0.0546 |
| ACAGCGAA | -0.0596 |
| ATCATTAA | 0.117 |
| CCAGTTGC | -0.163 |
| TGCCCCCA | -0.19 |
| AATCAATA | 0.0382 |
| CATTGGGA | -0.162 |
| GATCCATC | -0.202 |

| Sequence | PBM E-score |
| --- | --- |
| CATCAGCA | 0.0307 |
| CGTGGCTA | -0.0939 |
| ACCGTTCG | -0.136 |
| CCCCGGTC | -0.403 |
| ACGAAGAC | -0.218 |
| CGCTCTGA | -0.118 |
| AGTCAAGG | 0.0995 |
| ACACTTAC | 0.188 |
| GCTCGAAC | 0.00705 |
| ACGCAATA | 0.233 |
| GATGGTCC | -0.0829 |
| CCAGGACA | -0.0658 |
| TATGTTGA | 0.274 |
| GACGTCCA | -0.139 |
| GCGAGGAA | -0.0677 |
| GGCTCCAC | -0.0243 |
| AAACTTGT | 0.19 |
| CGATCTCA | -0.168 |
| GGGCCGAA | -0.232 |
| ATCCGCAT | -0.169 |
| CTAGAACC | -0.0352 |
| ACGTTCTG | -0.0537 |
